# The whole screen tested about 340,000 compounds, of which about 12,000 (3.5%) were called active. Inconclusive results, whose numbers are uncertain, are shown with a selection of clear calls. Calls come from the whole dose curve; as a rule, active = well fitted inhibition curve with a large enough effect; inconclusive = small, poorly fitted or top-dose-only effect, or another doubt; inactive = no such curve, though single readings can be large or run the other way. Potencies of inconclusive entries are left out as doubtful fits.
# Experiment: qHTS Assay for Inhibitors of Hepatitis C Virus (HCV)
# Details: Huh7.5.1 HCVcc-Cre (HCVcc is cell-culture hepatitis C virus) infection, luciferase reporter, 44 h; activity change, negative = inhibition: at 41.8 µM (top of the series) unless noted
# Summary of the method: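 Seed cells (1,000/well) for 4 h; treat with compound and infect with HCVcc-Cre, moi about 0.5. Incubate 44 h, then detect luciferase activity.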
# % is set by controls: 0 for no effect and ±100 for the full control effect; potency is the fitted concentration of half-maximal effect; tags give direction and shape of the fitted curve.
SMILES,Potency,"activity change, negative = inhibition"
Cc1cccc(NC(=O)CSc2nnc(CNC(=O)c3ccc(S(=O)(=O)N(C)C)cc3)n2-c2ccc(F)cc2)c1,"inconclusive [inhibitor, partial curve]",
Cc1[nH]c2ccccc2c1SCC(=O)N1CCCc2ccccc21,,inactive: -6.46%
C=CCOC(=O)c1c(C)nc2cc3c(cc2c1C)OCO3,"inconclusive [inhibitor, single point]",
O=C(c1ccc2c(=O)n(C3CCCC3)c(=S)[nH]c2c1)N1CCCCCC1,"inconclusive [inhibitor, partial curve]",
O=S(=O)(c1ccc(F)cc1)N1CCN(c2nc(-c3ccc(F)cc3)cs2)CC1,,inactive: -22%
O=C(O)c1cccc(Nc2nc(N3CCOCC3)nc(N3CCOCC3)n2)c1,,inactive: 11%
O=C(N/N=C(\c1ccccc1)c1ccccn1)c1cccc([N+](=O)[O-])c1,"inconclusive [inhibitor, full curve]",
CC(C)(C)OC(=O)C[C@H]1C/C=C\C[C@H](CC(=O)N[C@H](CO)Cc2ccccc2)C(=O)N2CCC[C@@H]2COC1=O,,inactive: -6.32%
C/C(=N\NC(=O)CC(C)C)c1ccc(Cl)c(Cl)c1,,inactive: -16%
COc1ccc(C(=O)Nc2cccc3nc(C)ccc23)c(OC)c1,"inconclusive [inhibitor, partial curve]",
O=C(NC1CCCCC1)C(c1ccc2ncccc2c1)N(Cc1ccc2c(c1)OCO2)C(=O)c1ccc2c(c1)OCCO2 (stereo unspecified),"inconclusive [inhibitor, single point]",
Cc1ccc(NC(=S)NC(=O)C2CCC2)cc1C,,inactive: -12%
CC(=O)N1CCN(c2ccc(NC(=S)NC(=O)COc3ccc(C(C)(C)C)cc3)cc2)CC1,"inconclusive [inhibitor, single point]",
COc1cc(OC)cc(C(=O)Nc2ccc(C(=O)Nc3ccccc3OC)cc2)c1,active: 11.2 µM,
COc1cc(/C=C2/C(C)=C(C#N)c3nc(N)c(C#N)c(C)c32)ccc1OCC(=O)O,"inconclusive [inhibitor, partial curve]",
CC1=NN(C(N)=S)C(=O)C1N=Nc1c(C)cc(C)cc1C (stereo unspecified),,inactive: 20.6%
O=C(CN(c1ccccc1)S(=O)(=O)c1ccccc1)NCCSCc1ccco1,"inconclusive [inhibitor, single point]",
O=C(Oc1ccc2c(c1)OCC2=O)c1ccccc1,,inactive: 5.92%
N/C(=N\OC(=O)c1ccc([N+](=O)[O-])cc1Cl)c1ccccn1,"inconclusive [inhibitor, single point]",
Nc1c(C(=O)NCCN2CCOCC2)c2nc3ccccc3nc2n1-c1ccccc1,"inconclusive [inhibitor, single point]",
C=C(C)COc1ccc(-c2nc(N)ncc2-c2ccc(OC)cc2)c(O)c1,"inconclusive [inhibitor, single point]",
Cc1oc(-c2ccc(Cl)cc2)nc1CN1CCCN(C(=O)c2ccco2)CC1,"inconclusive [inhibitor, partial curve, poor fit]",

SMILES,Potency,"activity change, negative = inhibition"
CCn1ncc(Br)c1C(=O)Nc1cc(C)ccc1F,"inconclusive [inhibitor, single point]",
CCCCC(=O)Nc1nn(CC)c2nc3c(C)cccc3cc12,"inconclusive [inhibitor, partial curve]",
COc1ccccc1N1CCN(C(=O)c2ccc3[nH]c4c(c3c2)CC(C)CC4)CC1 (stereo unspecified),active: 11.2 µM,
O=C(Nc1ccc(-c2noc(CCc3ccccc3)n2)cc1)c1ccco1,"inconclusive [inhibitor, single point]",
COc1ccccc1-n1c(SCC(=O)NCc2ccc3c(c2)OCO3)nc2cc([N+](=O)[O-])ccc21,active: 25.1 µM,
Cc1cc(OC(C)C(=O)NCc2ccccn2)c2c(C)c(Cc3ccccc3)c(=O)oc2c1 (stereo unspecified),"inconclusive [inhibitor, partial curve]",
COc1ccc(CCNc2c3ccccc3nc3ccccc23)cc1OC,"inconclusive [inhibitor, single point]",
CN(Cc1ccccc1)S(=O)(=O)c1ccc(C(=O)Nc2nnc(C3CC3)o2)cc1,"inconclusive [inhibitor, single point]",
CC(C)(C)NC(=O)CN1CCCN(C(=O)COc2ccc(Cl)c3ccccc23)CC1,,inactive: -14.1%
C=CCN(c1ccccc1OC)S(=O)(=O)c1cccc(C(=O)OCC(=O)c2c[nH]c3ccccc23)c1,"inconclusive [inhibitor, single point]",
COc1ccc(NS(=O)(=O)c2cccc(NC(=O)NC3CCCCC3)c2)cc1,"inconclusive [inhibitor, single point]",
CCN(C(=O)C1CCCN(c2nc(-c3ccc(OC)cc3)no2)C1)c1ccccc1F (stereo unspecified),"inconclusive [inhibitor, single point]",
Cc1cccc(CCN=c2c([N+](=O)[O-])nn(-c3ccccc3)n2O)c1,"inconclusive [inhibitor, single point]",
COc1ccccc1-n1c(CNC(=O)c2ccco2)nnc1SCC(=O)Nc1ccc(F)cc1,"inconclusive [inhibitor, partial curve, poor fit]",
CCOC(=O)c1cccc(N2C(=O)C3C(C(=O)NC4CC4)C4(C)C=CC3(O4)C2C(=O)NC(C)(C)C)c1 (stereo unspecified),"inconclusive [inhibitor, single point]",
CCN(CC)CCCn1c(=S)[nH]c2cc(Cl)ccc2c1=O,active: 7.08 µM,
CC(C)NC(=O)N(C)C[C@H]1Oc2c(NS(=O)(=O)c3cccs3)cccc2C(=O)N([C@H](C)CO)C[C@@H]1C,"inconclusive [inhibitor, partial curve]",
CCOc1ccc(NC(=O)CSc2nc(=O)n(Cc3ccccn3)c3c2CCC3)cc1,,inactive: 15.5%
Cc1ccc2nc(N3CCOCC3)c(C=O)cc2c1,"inconclusive [inhibitor, single point]",
c1ccc(Cc2noc(CN3CCN(CCOc4ccccc4)CC3)n2)cc1,,inactive: 7.72%
O=C(CN1C(=O)C(=O)N(Cc2ccccc2)C1=O)Nc1cc(Cl)cc(Cl)c1,,inactive: -13.4%
Cc1[nH]c2ccccc2c1C(=O)C(C)OC(=O)c1ccc(NC(=O)CC#N)cc1 (stereo unspecified),,inactive: -26.2%

SMILES,Potency,"activity change, negative = inhibition"
Cc1cccc(NC(=S)NCc2ccc3[nH]c4c(c3c2)CCCC4)c1,"inconclusive [inhibitor, single point]",
Cc1cc(Cl)ccc1OCC(=O)NCCOC(=O)Nc1sc(=S)n(C)c1C,"inconclusive [inhibitor, partial curve]",
CCc1ccc(NC(=O)CCCN2C(=O)C3CC=CCC3C2=O)cc1 (stereo unspecified),,inactive: -3.8%
CCN(CC(=O)NCc1ccc(Cl)cc1)C(=O)COc1cccc(C(F)(F)F)c1,"inconclusive [inhibitor, single point]",
CCOC(=O)c1c(NC(=O)CSc2nnnn2C)sc(C)c1C,"inconclusive [inhibitor, full curve]",
CCN(CC)c1nc(N)c2c(N)nc3c(c2c1C#N)CC(c1ccccc1)O3 (stereo unspecified),"inconclusive [inhibitor, partial curve, poor fit]",
O=C(CCc1nc2ccccc2c(=O)[nH]1)N1CCN(S(=O)(=O)c2ccccc2Br)CC1,"inconclusive [inhibitor, single point]",
COc1ccccc1Nc1nc(C)c(C(=O)Nc2ccccc2)s1,"inconclusive [inhibitor, partial curve, poor fit]",
C[C@@H](NC(=O)c1ncn(Cc2ccccc2)c1C(=O)N[C@H](C)c1ccccc1)c1ccccc1,"inconclusive [inhibitor, single point]",
O=C(Nc1ncc(Cc2ccccc2)s1)c1cccs1,"inconclusive [inhibitor, single point]",
CCOC(=O)c1cnc(-n2nc(C)cc2C)nc1NC1CCCC1,active: 1.12 µM,
O=C(NCC(c1ccco1)N1CCc2ccccc21)c1ccccc1Br (stereo unspecified),"inconclusive [inhibitor, single point]",
CCCCN1C(=O)N(c2nnc(C(C)(C)C)s2)C(O)C1c1ccc(C)cc1 (stereo unspecified),"inconclusive [inhibitor, single point]",
Cc1ccc(/C=C2\C(=O)NC(=S)N(c3ccc(F)cc3)C2=O)s1,"inconclusive [inhibitor, single point]",
Cc1ccc(C(=O)OCC(=O)c2c[nH]c3ccccc23)cc1S(=O)(=O)N1CCCCC1,active: 31.6 µM,
Cc1ccc(C(=O)NCCSc2c(C)[nH]c3ccccc23)cc1[N+](=O)[O-],active: 11.2 µM,
O=C(c1ccccc1)c1nn(-c2ccc(Cl)cc2)c(=O)cc1C(F)(F)F,active: 6.31 µM,
COc1ccc(NC(=O)CSc2nnc(-c3cccs3)n2Cc2ccco2)cc1OC,"inconclusive [inhibitor, partial curve, poor fit]",
CCOC(=O)c1cc2c(C)nn(-c3ccccc3)c2s1,"inconclusive [inhibitor, partial curve]",
Cc1ccc(C(=O)O/N=C(\N)c2ccccc2)c(Cl)c1,"inconclusive [inhibitor, single point]",
Cc1snc(S(=O)(=O)/C(C#N)=N/Nc2cccc(C(F)(F)F)c2)c1C#N,,inactive: -5.48%
CCN1CCN(c2ccc([N+](=O)[O-])cc2C(=O)c2ccc(Cl)cc2)CC1,"inconclusive [inhibitor, single point]",

# — PubChem BioAssay AID651820 (National Center for Advancing Translational Sciences (NCATS), 2012)
